{
  "source": "the supplement of paper PMC8728848",
  "binders": {"B1": {"name": "AidA (Burkholderia cenocepacia) (protein)", "chain": "MSRVTDVLVSFDTETILKKYPNPSKNPAAPTLIDWRYVYMVTNQDNVISGQAGGELDLKAQVGDLIRWRETSLSLGFENQVVFYKFIGNVGNDLISTPTPRVAEASIPVPNTSKPEVPTCQKVANYYWSSECLKVGRVTYHFQFQIIDRNCQSQGCFSWDPFISIHN"}},
  "experiment_in_all_cases": "glycan array binding signal (z-score within array); higher = stronger binding",
  "settings_in_all_cases": "glycan notation: IUPAC condensed, linker removed",
  "key": {"[1]": {"target": "Gal(b1-4)GlcNAc(b1-2)Man(a1-6)[Man(a1-3)]Man(b1-4)GlcNAc(b1-4)GlcNAc", "in_short": "(§1)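 Columns mapping to the same glycan were averaged after glycan names were converted to IUPAC-condensed notation. The data come from 3228 arrays in the Consortium for Functional Glycomics database, limited to those with an available protein sequence. Binding is reported as a within-array Z-score averaged across arrays of one protein sequence and across linkers.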"}, "[2]": {"target": "Gal(b1-4)GlcNAc(b1-2)[Gal(b1-4)GlcNAc(b1-4)]Man(a1-3)[Gal(b1-4)GlcNAc(b1-2)Man(a1-6)]Man(b1-4)GlcNAc(b1-4)GlcNAc", "in_short": "as §1"}, "[3]": {"target": "Gal(b1-4)GlcNAc(b1-2)[Gal(b1-4)GlcNAc(b1-4)]Man(a1-3)[Gal(b1-4)GlcNAc(b1-2)[Gal(b1-4)GlcNAc(b1-6)]Man(a1-6)]Man(b1-4)GlcNAc(b1-4)GlcNAc", "in_short": "as §1"}, "[4]": {"target": "Gal(b1-4)GlcNAc(b1-2)[Gal(b1-4)GlcNAc(b1-4)]Man(a1-3)[GlcNAc(b1-4)][Gal(b1-4)GlcNAc(b1-2)Man(a1-6)]Man(b1-4)GlcNAc(b1-4)GlcNAc", "in_short": "as §1"}, "[5]": {"target": "Gal(b1-4)GlcNAc(b1-2)[Gal(b1-4)GlcNAc(b1-4)]Man(a1-3)[GlcNAc(b1-4)][Gal(b1-4)GlcNAc(b1-2)[Gal(b1-4)GlcNAc(b1-6)]Man(a1-6)]Man(b1-4)GlcNAc(b1-4)GlcNAc", "in_short": "as §1"}, "[6]": {"target": "Gal(b1-4)GlcNAc(b1-2)[Gal(b1-4)GlcNAc(b1-6)]Man(a1-6)[Gal(b1-4)GlcNAc(b1-2)Man(a1-3)]Man(b1-4)GlcNAc(b1-4)GlcNAc", "in_short": "as §1"}, "[7]": {"target": "Gal(b1-4)GlcNAc(b1-2)[Gal(b1-4)GlcNAc(b1-6)]Man(a1-6)[Gal(b1-4)GlcNAc(b1-2)Man(a1-3)]Man(b1-4)GlcNAc(b1-4)[Fuc(a1-6)]GlcNAc", "in_short": "as §1"}, "[8]": {"target": "Gal(b1-4)GlcNAc(b1-2)[Gal(b1-4)GlcNAc(b1-6)]Man(a1-6)[GlcNAc(b1-4)][Gal(b1-4)GlcNAc(b1-2)Man(a1-3)]Man(b1-4)GlcNAc(b1-4)GlcNAc", "in_short": "as §1"}, "[9]": {"target": "Gal(b1-4)GlcNAc(b1-2)[Gal(b1-4)GlcNAc(b1-6)]Man(a1-6)[GlcNAc(b1-4)][Gal(b1-4)GlcNAc(b1-2)[Gal(b1-4)GlcNAc(b1-4)]Man(a1-3)]Man(b1-4)GlcNAc(b1-4)[Fuc(a1-6)]GlcNAc", "in_short": "as §1"}, "[10]": {"target": "Gal(b1-4)GlcNAc(b1-3)Gal(b1-3)GalNAc", "in_short": "as §1"}, "[11]": {"target": "Gal(b1-4)GlcNAc(b1-3)Gal(b1-3)GlcNAc", "in_short": "as §1"}, "[12]": {"target": "Gal(b1-4)GlcNAc(b1-3)Gal(b1-4)Glc", "in_short": "as §1"}, "[13]": {"target": "Gal(b1-4)GlcNAc(b1-3)Gal(b1-4)GlcNAc", "in_short": "as §1"}, "[14]": {"target": "Gal(b1-4)GlcNAc(b1-3)Gal(b1-4)GlcNAc(b1-2)Man(a1-3)[Gal(b1-4)GlcNAc(b1-3)Gal(b1-4)GlcNAc(b1-2)Man(a1-6)]Man(b1-4)GlcNAc(b1-4)GlcNAc", "in_short": "as §1"}, "[15]": {"target": "Gal(b1-4)GlcNAc(b1-3)Gal(b1-4)GlcNAc(b1-2)Man(a1-3)[Gal(b1-4)GlcNAc(b1-3)Gal(b1-4)GlcNAc(b1-2)Man(a1-6)]Man(b1-4)GlcNAc(b1-4)[Fuc(a1-6)]GlcNAc", "in_short": "as §1"}, "[16]": {"target": "Gal(b1-4)GlcNAc(b1-3)Gal(b1-4)GlcNAc(b1-2)[Gal(b1-4)GlcNAc(b1-3)Gal(b1-4)GlcNAc(b1-6)]Man(a1-6)[Gal(b1-4)GlcNAc(b1-3)Gal(b1-4)GlcNAc(b1-2)Man(a1-3)]Man(b1-4)GlcNAc(b1-4)GlcNAc", "in_short": "as §1"}, "[17]": {"target": "Gal(b1-4)GlcNAc(b1-3)Gal(b1-4)GlcNAc(b1-2)[Gal(b1-4)GlcNAc(b1-3)Gal(b1-4)GlcNAc(b1-6)]Man(a1-6)[Gal(b1-4)GlcNAc(b1-3)Gal(b1-4)GlcNAc(b1-2)Man(a1-3)]Man(b1-4)GlcNAc(b1-4)[Fuc(a1-6)]GlcNAc", "in_short": "as §1"}, "[18]": {"target": "Gal(b1-4)GlcNAc(b1-3)Gal(b1-4)GlcNAc(b1-3)Gal(b1-4)GlcNAc", "in_short": "as §1"}, "[19]": {"target": "Gal(b1-4)GlcNAc(b1-3)Gal(b1-4)GlcNAc(b1-3)Gal(b1-4)GlcNAc(b1-2)Man(a1-3)[Gal(b1-4)GlcNAc(b1-3)Gal(b1-4)GlcNAc(b1-3)Gal(b1-4)GlcNAc(b1-2)Man(a1-6)]Man(b1-4)GlcNAc(b1-4)GlcNAc", "in_short": "as §1"}, "[20]": {"target": "Gal(b1-4)GlcNAc(b1-3)Gal(b1-4)GlcNAc(b1-3)Gal(b1-4)GlcNAc(b1-2)Man(a1-3)[Gal(b1-4)GlcNAc(b1-3)Gal(b1-4)GlcNAc(b1-3)Gal(b1-4)GlcNAc(b1-2)Man(a1-6)]Man(b1-4)GlcNAc(b1-4)[Fuc(a1-6)]GlcNAc", "in_short": "as §1"}, "[21]": {"target": "Gal(b1-4)GlcNAc(b1-3)Gal(b1-4)GlcNAc(b1-3)Gal(b1-4)GlcNAc(b1-2)[Gal(b1-4)GlcNAc(b1-3)Gal(b1-4)GlcNAc(b1-3)Gal(b1-4)GlcNAc(b1-6)]Man(a1-6)[Gal(b1-4)GlcNAc(b1-3)Gal(b1-4)GlcNAc(b1-3)Gal(b1-4)GlcNAc(b1-2)Man(a1-3)]Man(b1-4)GlcNAc(b1-4)[Fuc(a1-6)]GlcNAc", "in_short": "as §1"}, "[22]": {"target": "Gal(b1-4)GlcNAc(b1-3)Gal(b1-4)GlcNAc(b1-3)Gal(b1-4)GlcNAc(b1-3)Gal(b1-4)GlcNAc(b1-2)Man(a1-3)[Gal(b1-4)GlcNAc(b1-3)Gal(b1-4)GlcNAc(b1-3)Gal(b1-4)GlcNAc(b1-3)Gal(b1-4)GlcNAc(b1-2)Man(a1-6)]Man(b1-4)GlcNAc(b1-4)GlcNAc", "in_short": "as §1"}},
  "note": "This is one part of the list.",
  "data": [
    {"binder": "B1", "values": [
      {"measurement": "glycan array binding signal (z-score)", "setting": "[1]", "value": 0.226},
      {"measurement": "glycan array binding signal (z-score)", "setting": "[2]", "value": -0.348},
      {"measurement": "glycan array binding signal (z-score)", "setting": "[3]", "value": -0.099},
      {"measurement": "glycan array binding signal (z-score)", "setting": "[4]", "value": 0.232},
      {"measurement": "glycan array binding signal (z-score)", "setting": "[5]", "value": -0.107},
      {"measurement": "glycan array binding signal (z-score)", "setting": "[6]", "value": -0.177},
      {"measurement": "glycan array binding signal (z-score)", "setting": "[7]", "value": 0.594},
      {"measurement": "glycan array binding signal (z-score)", "setting": "[8]", "value": -0.373},
      {"measurement": "glycan array binding signal (z-score)", "setting": "[9]", "value": -0.272},
      {"measurement": "glycan array binding signal (z-score)", "setting": "[10]", "value": -0.284},
      {"measurement": "glycan array binding signal (z-score)", "setting": "[11]", "value": -0.217},
      {"measurement": "glycan array binding signal (z-score)", "setting": "[12]", "value": -0.342},
      {"measurement": "glycan array binding signal (z-score)", "setting": "[13]", "value": -0.768},
      {"measurement": "glycan array binding signal (z-score)", "setting": "[14]", "value": 0.201},
      {"measurement": "glycan array binding signal (z-score)", "setting": "[15]", "value": 0.036},
      {"measurement": "glycan array binding signal (z-score)", "setting": "[16]", "value": -0.138},
      {"measurement": "glycan array binding signal (z-score)", "setting": "[17]", "value": -0.526},
      {"measurement": "glycan array binding signal (z-score)", "setting": "[18]", "value": -0.034},
      {"measurement": "glycan array binding signal (z-score)", "setting": "[19]", "value": 0.838},
      {"measurement": "glycan array binding signal (z-score)", "setting": "[20]", "value": 1.44},
      {"measurement": "glycan array binding signal (z-score)", "setting": "[21]", "value": 0.753},
      {"measurement": "glycan array binding signal (z-score)", "setting": "[22]", "value": 0.459}
    ]}
  ]
}
